Source: article PMC4975489, “The Arabidopsis Protein Phosphatase PP2C38 Negatively Regulates the Central Immune Kinase BIK1” (PLoS Pathogens, 2016)
Where a chain is given by its changes, count along the chain named. Numbers in names are those of the source. These are yes or no findings as the source states them, for the method shown. In cells and extracts the contact can be indirect. Some binding calls cover weakened binding; strength is not graded here. Where a sequence is shown, tags or fusion partners need not be part of it. Each block holds one molecule with its values, some of them ahead of it.

Protein sequences, listed by entry. Tags and fused reporters are not part of them. Residues count along the entry.
UniProt Q9FL28, residues 24-1173: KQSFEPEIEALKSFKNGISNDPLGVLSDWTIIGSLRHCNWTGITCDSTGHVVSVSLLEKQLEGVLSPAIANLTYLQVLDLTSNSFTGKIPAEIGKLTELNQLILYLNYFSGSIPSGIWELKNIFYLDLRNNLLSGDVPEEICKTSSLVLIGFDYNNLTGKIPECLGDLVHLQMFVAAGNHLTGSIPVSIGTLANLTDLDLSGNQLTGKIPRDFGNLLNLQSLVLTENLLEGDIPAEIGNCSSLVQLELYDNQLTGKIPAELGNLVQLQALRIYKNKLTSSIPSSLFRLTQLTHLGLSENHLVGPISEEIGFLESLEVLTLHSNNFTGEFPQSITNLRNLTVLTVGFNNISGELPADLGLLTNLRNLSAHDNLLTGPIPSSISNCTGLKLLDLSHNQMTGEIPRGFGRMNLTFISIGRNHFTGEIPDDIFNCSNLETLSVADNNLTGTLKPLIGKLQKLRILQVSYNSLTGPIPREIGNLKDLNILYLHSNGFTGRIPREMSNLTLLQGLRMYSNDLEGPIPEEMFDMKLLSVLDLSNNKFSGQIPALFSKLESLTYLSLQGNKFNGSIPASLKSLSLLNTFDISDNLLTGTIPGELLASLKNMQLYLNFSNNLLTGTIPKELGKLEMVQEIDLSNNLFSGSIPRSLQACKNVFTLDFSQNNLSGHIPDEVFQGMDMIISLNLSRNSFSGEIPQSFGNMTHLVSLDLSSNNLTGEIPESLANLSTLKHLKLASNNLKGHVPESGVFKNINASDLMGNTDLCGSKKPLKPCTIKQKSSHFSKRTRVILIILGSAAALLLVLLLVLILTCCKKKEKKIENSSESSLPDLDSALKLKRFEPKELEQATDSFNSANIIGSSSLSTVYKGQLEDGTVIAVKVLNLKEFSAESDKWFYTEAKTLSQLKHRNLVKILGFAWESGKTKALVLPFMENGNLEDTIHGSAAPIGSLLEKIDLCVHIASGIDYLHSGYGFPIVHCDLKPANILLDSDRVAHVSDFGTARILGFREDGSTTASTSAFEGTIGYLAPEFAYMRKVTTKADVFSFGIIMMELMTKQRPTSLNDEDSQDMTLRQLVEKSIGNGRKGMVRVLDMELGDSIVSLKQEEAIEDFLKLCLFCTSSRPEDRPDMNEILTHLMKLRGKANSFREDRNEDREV
UniProt C0LGT6, residues 25-1031: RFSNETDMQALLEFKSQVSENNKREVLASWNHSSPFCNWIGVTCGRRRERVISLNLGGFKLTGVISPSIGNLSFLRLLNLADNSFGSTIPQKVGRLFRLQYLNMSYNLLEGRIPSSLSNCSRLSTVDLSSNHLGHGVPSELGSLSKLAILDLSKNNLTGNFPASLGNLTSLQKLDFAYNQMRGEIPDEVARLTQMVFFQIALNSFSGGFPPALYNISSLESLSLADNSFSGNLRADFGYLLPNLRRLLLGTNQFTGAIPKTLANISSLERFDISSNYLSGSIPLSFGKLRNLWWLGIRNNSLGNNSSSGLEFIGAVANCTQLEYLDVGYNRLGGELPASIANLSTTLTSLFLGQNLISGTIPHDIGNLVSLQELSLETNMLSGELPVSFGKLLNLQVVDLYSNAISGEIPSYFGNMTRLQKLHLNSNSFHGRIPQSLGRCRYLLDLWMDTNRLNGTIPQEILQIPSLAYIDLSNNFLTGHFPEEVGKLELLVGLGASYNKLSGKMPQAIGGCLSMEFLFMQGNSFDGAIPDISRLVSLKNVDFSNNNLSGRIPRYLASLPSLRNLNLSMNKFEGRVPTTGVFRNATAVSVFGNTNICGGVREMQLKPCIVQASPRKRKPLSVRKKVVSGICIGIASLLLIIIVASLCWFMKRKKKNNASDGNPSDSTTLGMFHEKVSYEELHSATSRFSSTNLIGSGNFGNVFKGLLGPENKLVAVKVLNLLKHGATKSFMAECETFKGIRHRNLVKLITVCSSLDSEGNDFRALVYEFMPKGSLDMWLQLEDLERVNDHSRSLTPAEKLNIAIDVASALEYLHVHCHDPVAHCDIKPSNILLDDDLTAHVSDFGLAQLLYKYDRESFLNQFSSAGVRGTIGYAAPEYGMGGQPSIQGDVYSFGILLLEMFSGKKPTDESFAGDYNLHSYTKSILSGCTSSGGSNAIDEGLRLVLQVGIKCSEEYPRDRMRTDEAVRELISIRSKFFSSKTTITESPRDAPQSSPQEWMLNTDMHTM

Experiments:
[1] = target: T1, PP2C38-GFP (stable transgenic Arabidopsis line) (Arabidopsis thaliana) (UniProt Q9LHJ9); experiment: co-IP; as a4, seedlings treated with 1 μM flg22 for 20 min
T1 sequence: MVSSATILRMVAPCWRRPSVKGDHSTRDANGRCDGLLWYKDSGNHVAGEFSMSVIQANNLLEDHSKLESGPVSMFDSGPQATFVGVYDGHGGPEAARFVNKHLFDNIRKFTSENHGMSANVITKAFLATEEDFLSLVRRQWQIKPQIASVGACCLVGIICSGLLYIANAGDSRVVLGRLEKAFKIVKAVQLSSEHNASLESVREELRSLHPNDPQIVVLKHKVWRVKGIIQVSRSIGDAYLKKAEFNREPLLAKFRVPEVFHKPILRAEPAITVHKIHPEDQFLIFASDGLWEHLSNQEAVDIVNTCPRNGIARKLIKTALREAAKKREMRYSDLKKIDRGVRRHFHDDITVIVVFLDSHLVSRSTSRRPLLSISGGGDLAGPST

[2] = target: T1, PP2C38-GFP (stable transgenic Arabidopsis line) (Arabidopsis thaliana); experiment: co-IP; stable transgenic Arabidopsis seedlings (T3) expressing PP2C38-GFP, mock-treated; PP2C38-GFP immunoprecipitates, native FLS2 detected with α-FLS2
[3] = target: T2, BIK1-FLAG (Arabidopsis thaliana) (UniProt O48814); experiment: co-IP; Arabidopsis Col-0 protoplasts co-transfected, treated or not with 1 μM elf18 or flg22 for 15-30 min; α-FLAG immunoprecipitation, immunoblot
T2 sequence: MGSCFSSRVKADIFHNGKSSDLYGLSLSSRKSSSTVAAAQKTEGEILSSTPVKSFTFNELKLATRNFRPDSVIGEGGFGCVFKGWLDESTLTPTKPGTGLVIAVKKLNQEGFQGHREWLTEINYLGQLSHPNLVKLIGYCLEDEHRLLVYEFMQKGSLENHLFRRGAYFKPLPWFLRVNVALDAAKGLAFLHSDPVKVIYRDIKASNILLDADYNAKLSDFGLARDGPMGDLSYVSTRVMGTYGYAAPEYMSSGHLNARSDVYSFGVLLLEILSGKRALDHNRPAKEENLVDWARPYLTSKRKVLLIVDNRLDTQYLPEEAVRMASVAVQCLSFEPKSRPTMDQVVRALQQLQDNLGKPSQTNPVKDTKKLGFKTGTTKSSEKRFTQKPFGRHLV

[4] = target: T2, BIK1-FLAG (Arabidopsis thaliana); experiment: co-IP; as a6, the samples from protoplasts treated with 1 μM flg22 for 30 min
[5] = target: T3, BIK1-GFP (Arabidopsis thaliana) (UniProt O48814); experiment: co-IP; as a2, the samples from N. benthamiana leaves treated with 100 nM flg22 for 20 min
T3 sequence: T2 sequence

[6] = target: FLS2-GFP (Arabidopsis thaliana) (UniProt Q9FL28); experiment: as above
[7] = target: T3, BIK1-GFP (Arabidopsis thaliana); experiment: co-IP; proteins transiently co-expressed in N. benthamiana leaves, treated or not with 100 nM elf18 or flg22 for 20 min; GFP-Trap immunoprecipitation at 4°C, immunoblot
[8] = target: FLS2-GFP (Arabidopsis thaliana) (UniProt Q9FL28); experiment: as above
[9] = target: T4, BAK1-GFP (Arabidopsis thaliana) (UniProt Q94F62); experiment: as above
T4 sequence: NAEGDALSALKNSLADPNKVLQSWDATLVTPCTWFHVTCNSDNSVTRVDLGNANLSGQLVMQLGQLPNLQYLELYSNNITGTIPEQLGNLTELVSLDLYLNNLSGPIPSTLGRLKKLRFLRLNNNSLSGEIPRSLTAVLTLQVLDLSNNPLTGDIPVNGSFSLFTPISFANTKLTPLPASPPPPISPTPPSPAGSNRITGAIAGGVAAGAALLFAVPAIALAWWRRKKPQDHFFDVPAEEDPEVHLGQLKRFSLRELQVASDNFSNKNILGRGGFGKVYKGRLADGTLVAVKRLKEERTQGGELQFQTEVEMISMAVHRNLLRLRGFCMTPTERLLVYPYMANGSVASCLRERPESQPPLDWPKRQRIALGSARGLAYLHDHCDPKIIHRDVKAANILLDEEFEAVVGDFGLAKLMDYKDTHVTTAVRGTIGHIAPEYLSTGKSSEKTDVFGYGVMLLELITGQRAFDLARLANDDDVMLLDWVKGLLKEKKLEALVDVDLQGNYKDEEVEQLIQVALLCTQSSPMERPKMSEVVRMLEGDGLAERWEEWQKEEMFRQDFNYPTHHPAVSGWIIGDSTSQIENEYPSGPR

[10] = target: full-length EFR-GFP (Arabidopsis thaliana) (UniProt C0LGT6); experiment: as above
[11] = target: T5, PP2C38-FLAG (expressed in Arabidopsis protoplasts) (Arabidopsis thaliana) (UniProt Q9LHJ9); experiment: co-IP; Arabidopsis Col-0 protoplasts co-transfected, treated or not with 1 μM elf18 or flg22 for 15-30 min; α-FLAG immunoprecipitation, immunoblot
T5 sequence: T1 sequence

Molecule: endogenous FLS2 (native FLS2 protein) (from UniProt Q9FL28 24-1173) (receptor)
binding [1]: no binding (condition: after 1 μM flg22 for 20 min)
binding [2]: binds

B2: PP2C38^S77A-HA (enzyme, UniProt Q9LHJ9 1-385)
chain: T1 sequence with S77A
binding [3]: binds

B3: PP2C38-FLAG (expressed in N. benthamiana) (enzyme, UniProt Q9LHJ9 1-385)
chain: T1 sequence
binding [5]: no binding (condition: after 100 nM flg22 for 20 min)
binding [6]: no binding (condition: after 100 nM flg22 for 20 min)
binding [7]: binds
binding [8]: binds
binding [9]: no binding
binding [10]: binds

Continued, in another order:

binding [3]: binds
B1: PP2C38-HA (enzyme, UniProt Q9LHJ9 1-385)
chain: T1 sequence
binding [4]: no binding (condition: after 1 μM flg22 for 30 min)

binding [11]: no binding
B4: endogenous BAK1 (receptor, UniProt Q94F62 26-615)
chain: T4 sequence
